Drawing on paper PMC12136788, this text covers binding signal for 14 molecules.

T1: UNK ZnF1-3 (human, UniProt Q9C0B0 31-174)
T1 sequence: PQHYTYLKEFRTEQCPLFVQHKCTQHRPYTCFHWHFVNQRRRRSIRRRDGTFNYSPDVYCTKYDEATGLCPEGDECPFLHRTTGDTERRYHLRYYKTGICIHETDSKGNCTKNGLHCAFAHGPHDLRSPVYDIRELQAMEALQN

B1: chr3:94683992:94683993:+_ENSMUSG00000038902_ENSMUST00000107270|mus_hu|motif|central (ssRNA)
RNA: GGGAGUUCUACAGUCCGACGAUCGUUAAUGUUGCCAUCGGGGCCAGGCAGAACACUAGCCACCAGGAAGGAGCGCUGAACGGGCUCUGGACAGUCCCCAAUGACACCUAGCACUUCACCCAGCCAGACAAGCACCAGCUGAAGCAACAGAGGAUUGAGCAUCA
B2: chr20:39729905:39729906:+_ENSG00000198900_ENST00000361337|hu_hu|FALSE|FALSE (ssRNA)
RNA: GGGAGUUCUACAGUCCGACGAUCGUAUUUAAUGGAACCUUGGAUGUUCUCUGUCCAGGAAACCAGCCAAGUAACCUUGUUAUCAUGCCGGACUUCUUUCCACUUAUGUCCUGGAGGAGGAGAAGGAACCUUGGCAUCUUUGCUCAACAGAGGAUUGAGCAUCA
B3: chr2:29001751:29001752:+_ENSG00000213639_ENST00000296122|perfect_dup|FALSE|FALSE (ssRNA)
RNA: GGGAGUUCUACAGUCCGACGAUCAGCCAAUAGCAAACAGAUGGUUUCCAAAGACUGCUUUCCUCUGUCCACAUAAUCUCCUAAGAAAAGAUAGUUGGCUUCUGGUGGAAAACCUCCAUAUUCAAAUAAUCUUAGUAAGUCUGUCAACAGAGGAUUGAGCAUCA
B4: chr10:70028019:70028020:-_ENSMUSG00000037747_ENSMUST00000162251|mus_hu|FALSE|FALSE (ssRNA)
RNA: GGGAGUUCUACAGUCCGACGAUCAGCCUUCUCCAACAAUUGUGUUAGAUGAACUUUUGAAUAGUCUGCGGUGCAGAAUUCUAUAAUUUCACUCCAUUCAGACACAACAUAAUCACCAUCAACUUGUUUUGAGGCAGUCUGCACCAACAGAGGAUUGAGCAUCA
B5: chr4:43572504:43572505:-_ENSMUSG00000028465_ENSMUST00000123985|mus_mus|motif|central (ssRNA)
RNA: GGGAGUUCUACAGUCCGACGAUCUCUCUCCAUUAGGUCAGUCGAAGAUGAGUCAAAGGUAUCGUCCCAGGCACAGAGAAUAGCACGGGCAAAGGUUGAGAGGCAGGAGAUCUCGGAGGAAUGCCCAGGAAAGUGAGGAGGCAACAACAGAGGAUUGAGCAUCA
B6: chr8:48798321:48798322:-_ENSMUSG00000038069_ENSMUST00000038738|mus_hu|motif|central (ssRNA)
RNA: GGGAGUUCUACAGUCCGACGAUCCAGUUCAUCUCUUGUUGUAUAGGUUGGAGCAUCUGUCACUUUGAUGCCUUCAGCCAUACGGAGUAUUUUAUCCAUAACUUUUUGAGGGUAUCGGCACCCGAGGAAGACGUGGUUCGCCCACAACAGAGGAUUGAGCAUCA
B7: chr22:19452774:19452775:-_ENSG00000070010_ENST00000399523|hu_hu|hu_hu_hu_mus_False|1_1 (ssRNA)
RNA: GGGAGUUCUACAGUCCGACGAUCCUUCUCAUUGUAGUUGAUAGCAAUCACAUCUCCAGUCGUCAGACAGGCGAAGUUUCUCAAUGCAUUUUCUAAUACCGCUUUAGGGUUGGUAAUAUCCAGGAAGUCUGGGCUCUGAGGUUGCAACAGAGGAUUGAGCAUCA
B8: 13929359_13931220_701_CDS_ENSMUSG00000038365_ENSMUST00000043520|mouse|control|control (ssRNA)
RNA: GGGAGUUCUACAGUCCGACGAUCCAGGGGCAGGUCACUGAGUGUGAGGCCAGUGUUUACCUGCUUUGUCACCUGGAGGUUCUGCAGCUGCUGCUGCCAGCUGAGGACGGUCUCCAGGCGGCAGAUCCAGAUGUUGAUGUUCCCCAACAGAGGAUUGAGCAUCA
B9: chr12:39763582:39763583:-_ENSG00000139116_ENST00000544797|hu_mus|hu_hu_hu_mus_False|68_68 (ssRNA)
RNA: GGGAGUUCUACAGUCCGACGAUCCUCUAGGAACUGGGCAUUCACUUUGAAUUCAGGAGGGGGCAGCCCAUUUUUAAUCGCUGAGGUCUUUUUCUCAUCAAUACUCUUGAACAGGUGUCUAACAGCACGAGAGAUGAUGCCCUGCAACAGAGGAUUGAGCAUCA
B10: 135554746_135554866_2364_CDS_ENSG00000125484_ENST00000372146|human|control|control (ssRNA)
RNA: GGGAGUUCUACAGUCCGACGAUCUUCAUCGUCAGCAUUGCCCAUCCCAGGCGAAUCCACUAGUAAGAUUUUUGAGUCCUCAUGGGUGGGUUUCCACAAGGCUUCUGAAGGGGUUUUCUGCAUUGACUGAUAUAAAAUCCUCAGCAACAGAGGAUUGAGCAUCA
B11: chr12:39756943:39756944:-_ENSG00000139116_ENST00000544797|hu_mus|hu_hu_hu_mus_False|68_78 (ssRNA)
RNA: GGGAGUUCUACAGUCCGACGAUCGGUUUGGCUGUUACCCCCAAGGGAAUCCUGCAAUAGUCUUGUUAGCUUGGAAUCUCUGUAAGGGACAUGGGUGGCUCUCUUGCUCUUGUCCCCCAAGGCGCUGAUUACAUUCCCAAGAGCCAACAGAGGAUUGAGCAUCA
B12: chr5:108714765:108714766:-_ENSG00000198961_ENST00000361557|hu_hu|FALSE|FALSE (ssRNA)
RNA: GGGAGUUCUACAGUCCGACGAUCACAAGCUCCUGGAAUAUACUCUCCCUCAGAGUGAUUAUGAAGAUUUGUACUGCUUCCUAAGGUAUCCCUGCCUUCCUCACUGUGAUGUACUGCAACAAAGGAUUGACUGCUCUCAGUGGUCAACAGAGGAUUGAGCAUCA
B13: chr2:100011259:100011260:+_ENSG00000158417_ENST00000289371|hu_hu|FALSE|FALSE (ssRNA)
RNA: GGGAGUUCUACAGUCCGACGAUCGUAGUCUUGUCUAUAUUUUGUAAAGGCAUCAAAUAAAUGAUAAAUAAUUUCUGCACUAAAAAUUCUAACUCCUAAACUAUCAGCCAUUUCUUGUGCAUCUCGUUCAAUUCUCACAUCGAACAACAGAGGAUUGAGCAUCA
B14: 52694965_52695325_878_CDS_ENSMUSG00000003865_ENSMUST00000003964|mouse|control|control (ssRNA)
RNA: GGGAGUUCUACAGUCCGACGAUCGCAGUACCGGUGAUAGAUCUGCCUCUCUCCUGCUUCCUUGUCUACAUUGAAAUUCUCCAGGUUGUUGUAGAAGUCCACAGCGCCAGCACACAGGUAGCGCCCCAGCAGCGUGGCAUGAGUCAACAGAGGAUUGAGCAUCA

The other results are listed elsewhere or left out.

The assay concerns the target T1, UNK ZnF1-3. As to the kind of experiment: nsRBNS (natural sequence RNA bind-n-seq); RBNS binding buffer (assumed for nsRBNS): 25 mM Tris pH 7.5, 150 mM KCl, 3 mM MgCl2, 0.01% Triton X-100, 500 ug/ml BSA, 20 U/ml SUPERase-In, 4 C; UNK is unkempt and MSI1 is Musashi-1; names of the RNAs are library labels; protein concentration not given here; high values mean tight binding.
For B1, the binding signal was 1.15 enrichment R.
B2: the binding signal is 0.537 enrichment R.
B3 had a binding signal of 1.88 enrichment R.
In turn, B4 returned a binding signal of 1.28 enrichment R.
For B5 the value was 2.35 enrichment R; for B6, 0.614 enrichment R.
In turn, B7 displayed a binding signal of 0.884 enrichment R.
The molecule B8 registered a binding signal of 0.556 enrichment R.
Turning to B9, the binding signal worked out at 1.46 enrichment R.
In turn, B10 returned a binding signal of 0.627 enrichment R.
For B11 the value was 0.729 enrichment R.
To B12 belongs 2.06 enrichment R.
To B13 belongs 1.46 enrichment R; to B14, 0.937 enrichment R.
